Out of some 310,000 compounds screened, about 2,200 (0.71%) showed an effect of 50% or more. Effects have a minus sign here. The list shows a part of the results.
Target: human ether-à-go-go-related gene (hERG) potassium channel (human, UniProt Q12809)
Assay: primary screen, population patch clamp on CHO cells stably expressing hERG

human ether-à-go-go-related gene (hERG) potassium channel, sequence (Q12809 whole entry, looked up): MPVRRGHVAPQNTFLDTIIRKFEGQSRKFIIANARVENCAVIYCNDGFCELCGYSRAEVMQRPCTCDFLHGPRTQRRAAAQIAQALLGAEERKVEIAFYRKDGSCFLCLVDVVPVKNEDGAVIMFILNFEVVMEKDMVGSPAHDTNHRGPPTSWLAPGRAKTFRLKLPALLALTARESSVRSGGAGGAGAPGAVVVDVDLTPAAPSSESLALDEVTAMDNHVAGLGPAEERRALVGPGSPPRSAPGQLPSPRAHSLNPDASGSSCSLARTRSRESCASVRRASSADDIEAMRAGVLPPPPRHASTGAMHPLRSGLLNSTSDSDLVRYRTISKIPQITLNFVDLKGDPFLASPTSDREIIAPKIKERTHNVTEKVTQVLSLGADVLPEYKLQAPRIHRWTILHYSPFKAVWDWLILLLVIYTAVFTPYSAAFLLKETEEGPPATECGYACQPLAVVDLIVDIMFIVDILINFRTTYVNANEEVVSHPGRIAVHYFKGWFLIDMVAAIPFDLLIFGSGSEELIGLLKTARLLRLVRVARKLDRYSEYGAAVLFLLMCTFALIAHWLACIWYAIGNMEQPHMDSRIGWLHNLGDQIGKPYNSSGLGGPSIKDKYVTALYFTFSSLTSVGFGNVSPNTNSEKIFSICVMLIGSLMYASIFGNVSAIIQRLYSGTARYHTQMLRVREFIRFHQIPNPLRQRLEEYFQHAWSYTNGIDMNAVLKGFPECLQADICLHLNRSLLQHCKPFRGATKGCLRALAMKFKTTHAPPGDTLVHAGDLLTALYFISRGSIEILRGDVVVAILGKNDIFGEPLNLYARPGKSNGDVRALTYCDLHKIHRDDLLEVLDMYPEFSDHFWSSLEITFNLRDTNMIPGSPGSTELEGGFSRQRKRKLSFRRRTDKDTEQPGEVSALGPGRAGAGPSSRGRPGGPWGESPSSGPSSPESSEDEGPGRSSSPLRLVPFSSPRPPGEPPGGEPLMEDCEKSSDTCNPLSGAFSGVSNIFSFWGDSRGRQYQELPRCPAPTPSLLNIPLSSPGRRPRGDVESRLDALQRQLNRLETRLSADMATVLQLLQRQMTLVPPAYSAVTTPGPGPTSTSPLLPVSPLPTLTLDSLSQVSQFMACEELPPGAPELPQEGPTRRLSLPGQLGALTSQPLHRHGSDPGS

Compound | hERG current change (%, negative = inhibition) at 1uM [%]
COc1ccc(C)cc1NC(=O)CNC(C)C(=O)Nc1ccc(C(C)=O)cc1 (stereo not shown) | 6.11
Cc1ccc(NC(=O)Nc2ccccc2F)cc1S(=O)(=O)N1CCOCC1 | 14.4
COc1ccc(Oc2cc(F)nc(N)n2)cc1 | -6.97
COC(=O)C(O)(CC(=O)Nc1ccc(Cl)cc1Cl)C(F)(F)F (stereo not shown) | 9.79
COC(=O)C1=C(C(=O)OC)[C@@H]2N(C)c3ccccc3[C@@]23C[C@@H](CO)N(C(=O)C2CCC2)C3=N1 | 14.4
Cc1ccc(S(=O)(=O)NC2(C(F)(F)F)NC(=O)N(CCc3ccccc3)C2=O)cc1 (stereo not shown) | 7.1
O=C(NCCO)C1(c2ccccc2)CCCC1 | 13
COC(=O)c1ccccc1NC(=O)c1nc2nc(C)cc(C(F)F)n2n1 | 5.34
CC1CCC2(CC1)NC(=O)N(CC(=O)Nc1ccccc1-c1ccccc1)C2=O (stereo not shown) | 0.241
O=C(CSc1nnc2ncccn12)N1CCCCCC1 | 9.65
CC(C)c1cccc(C(C)C)c1NC(=O)COC(=O)c1ccc(OCC(=O)Nc2cccc(C(F)(F)F)c2)cc1 | 10.9
O=C(NCCC1=CCCCC1)C(c1ccccc1)c1ccccc1 | 6.73
CCCCn1c(N)c(N(CC(C)C)C(=O)C2CCN(S(=O)(=O)c3ccc(C)c(C)c3)CC2)c(=O)[nH]c1=O | -4.06
Cc1nnc(SCC(=O)Nc2ccc([N+](=O)[O-])cc2)n1C | 11.4
C/C(=N\NC(=O)c1cc(-c2cccc([N+](=O)[O-])c2)n[nH]1)c1ccc(F)cc1 | 14.1
CCOC(=O)c1cc(-c2ccc(OC)cc2)nc2c1c(C)nn2CCC#N | 11.6
CCCCNC(=S)N/N=C/C1=CCC2CC1C2(C)C (stereo not shown) | 11.1
CCOc1cccc(CNc2ccc(O)cc2)c1OCc1ccccc1Cl | 20.2
CSC1=NCCN1C(=O)c1ccc(S(=O)(=O)N(C)C)cc1 | 11.7
C=CCN(CC=C)C(=S)NC(=O)c1ccc(OC)c(Br)c1 | 16
CC(Cl)C(=O)c1ccc2c(c1)CCN2C(=O)C1CC1 (stereo not shown) | 8.81
CC(=O)C1=C(O)C(=O)N(c2cccnc2)C1c1cccc([N+](=O)[O-])c1 (stereo not shown) | -3.72
Cc1nc(C(F)(F)F)c(C(=O)O)cc1-c1nc(-c2ccccc2)cs1 | 18.6
COc1ccccc1CNCc1ccc(OC)c2ccccc12 | 10.7
Cc1cc(N2C(=O)CC(Cc3ccc(Cl)cc3)C2=O)no1 (stereo not shown) | 6.89
COc1ccccc1C(=O)Nc1ccc(S(=O)(=O)N2CCCCC2c2cccnc2)cc1 (stereo not shown) | 11.1
CSc1ncc(Cl)c(C(=O)Nc2ccccc2C)n1 | -5.45
COc1ccc(/C=C(\NC(=O)c2ccc(OC)cc2)C(=O)NC(CCSC)C(=O)O)cc1 (stereo not shown) | -12.9

Compound | hERG current change (%, negative = inhibition) at 1uM [%]
COc1ccc(C(=O)Cn2c(=O)c(CCC(=O)O)nn3c4ccccc4nc23)cc1OC | -4.76
O=C(Cc1c(F)cccc1Cl)N(Cc1ccccc1)c1ccccn1 | 7.65
CC(=O)N(c1ccc2oc(=O)sc2c1)S(=O)(=O)c1cccc2cccnc12 | 10.7
Cc1nc(SCN2C(=O)c3ccccc3C2=O)n[nH]1 | 11.5
CSCCC(Nc1ncnc2ccc(Br)cc12)C(=O)O.Cl (stereo not shown) | 15.2
COc1ccc(CNC(=O)c2cnc3n(c2=O)CCS3)cc1 | -3.08
COC(=O)c1cc(-c2cccc([N+](=O)[O-])c2)c2c(=O)n(C)c(=O)n(C)c2n1 | 13.4
COc1cc(NC(C)C(=O)N2CC(C)OC(C)C2)cc(OC)c1 (stereo not shown) | 6.7
Cc1sc2ncnc(SCC(=O)N3CCC(c4noc5ccc(F)cc45)CC3)c2c1C | 9.72
Fc1ccc(Nc2nnc(C(F)(F)F)s2)cc1 | 9.01
Cc1cc(-n2c(C)cc(C(=O)CSc3nc4ccccc4c(=O)n3Cc3ccco3)c2C)no1 | 17.5
CCOCCCn1c(=NC(=O)c2ccco2)c(C(=O)OCC)cc2c(=O)n3cccc(C)c3nc21 | -73.9
COCCCn1c(=O)c2ccccc2n(Cc2ccccc2C)c1=O | 19.2
Cc1ccccc1C(=O)NC1CCN(CC(=O)NC2CCCCC2)CC1 | 0.348
CC(Oc1cccc(Cl)c1)C(=O)Nc1cc(=O)n(C)c(=O)n1C (stereo not shown) | 4.54
COCCCN1C(=O)C(=O)/C(=C(/O)c2ccc(C)cc2)C1/C=C/c1ccccc1 (stereo not shown) | 11.8
COc1cc(OC)c(C2CC(=O)N3CN(c4ccccc4C)CSC3=C2C#N)cc1OC (stereo not shown) | -0.537
COC(=O)c1ccc(C2C(C(=O)c3cc4ccccc4o3)=C(O)C(=O)N2c2cc(C)on2)cc1 (stereo not shown) | 11.7
COc1ccccc1C(=O)NCC(=O)NC(C)c1ccc(-n2ccnc2)cc1 (stereo not shown) | -2.86
CCN(CC)C(=O)c1ccc2c(c1[N+](=O)[O-])C(=O)c1ccccc1C2=O | 8.64
COc1ccc(-c2csc(NC(=S)NC(=O)c3ccco3)n2)cc1Br | 15.1
CC(C)Nc1ccc(Nc2ccccc2)cc1 | 12.4
Cc1cccc(C(=O)Nc2oc(-c3ccccc3)cc2C#N)c1 | 10.9
CCCN1C2CCCC1CC(NC(=O)c1ccc(C(C)(C)C)cc1)C2 (stereo not shown) | -2.86
CN(C)CCCN(C(=O)c1cccs1)c1nc2cc3c(cc2s1)OCO3.Cl | -7.6
CCCCn1cnc2c1c(=O)[nH]c(=O)n2CCCC | 1.93
O=C(c1ccccc1)N1CCN(C(=O)c2nn3c(C(F)(F)F)cc(-c4ccco4)nc3c2Cl)CC1 | 22.7

From paper PMC4336329 (PLoS ONE, 2015)
